± gives the standard deviation of the averaged measurements. Whole data set: some 33,000 sequences, median “E-score (dimensionless, -0.5 to 0.5)” near -0.049, cut for the highest 2% near 0.37. The list shows a part of the results.
system: T1, PmTbr T-box DNA-binding domain (GST fusion); experiment: PBM E-score of 8-mer (E-score (dimensionless, -0.5 to 0.5)); Tbr is Tbrain of the sea star Patiria miniata (Pm) or the sea urchin Strongylocentrotus purpuratus (Sp); higher = stronger binding preference; most listed sequences are background and not binding sites; conditions: the construct has about 5 more residues each side
T1 sequence: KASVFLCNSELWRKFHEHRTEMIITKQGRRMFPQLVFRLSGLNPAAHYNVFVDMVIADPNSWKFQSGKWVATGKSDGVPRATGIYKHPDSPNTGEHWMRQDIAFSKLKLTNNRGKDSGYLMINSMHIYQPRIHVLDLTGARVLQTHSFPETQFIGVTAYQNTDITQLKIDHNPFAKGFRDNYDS
How it was run: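 Expression of GST-fused Tbr T-box DNA-binding domains, each holding the full T-box plus roughly five flanking residues, was carried out in BL21 E. coli at 20 °C, with purification by glutathione affinity chromatography. Universal Agilent arrays made double-stranded by primer extension were incubated with the protein at 200 nM in PBS (pH 7.5), then scanned and quantified. All ungapped 8-mers were scored from probe intensities, and each received an enrichment E-score from the Universal PBM Analysis Suite, averaged over duplicate arrays.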

Sequence	PBM E-score of 8-mer
AGGAAGGG	-0.28 ± 0.01
ACTGTAGC	-0.0923 ± 0.037
AAAAAAAA	0.181 ± 0.14
CTCTAGCA	0.11 ± 0.052
AATCTTGG	-0.154 ± 0.068
CGGCCGTA	-0.244 ± 0.051
CCGCCAGG	-0.161 ± 0.037
CAGTGAGC	-0.0576 ± 0.033
TCCTCCCA	-0.228 ± 0.011
AGGGGTTG	-0.0593 ± 0.025
ATGGTACA	-0.0984 ± 0.012
TGCGACAA	0.296 ± 0.013
GAAGAAGC	-0.029 ± 0.038
ACCCGAAC	-0.037 ± 0.034
CGCCCCCA	-0.173 ± 0.087
GGAGCCAA	0.0103 ± 0.085
GCCGGGGA	-0.1699 ± 0.0012
AACGCGGA	0.062 ± 0.03
GCTACTAA	0.0526 ± 0.064
ATAGCATA	0.057 ± 0.018
ATTAGGGG	-0.208 ± 0.071
CGGTCCCA	0.00853 ± 0.048
CCGGCGAA	-0.133 ± 0.079
ACCCTGTC	0.0965 ± 0.015
AGTAAGTA	-0.149 ± 0.064

Sequence	PBM E-score of 8-mer
AATCCGGG	-0.00925 ± 0.029
CTCTCCCC	-0.127 ± 0.018
CGTCACGA	0.0777 ± 0.0028
AGGCACTC	0.0266 ± 0.06
CGGCTACA	-0.0468 ± 0.08
GCTTTTCA	0.212 ± 0.1
AATAGATA	-0.108 ± 0.032
AATGTTGT	0.191 ± 0.021
GTCACGTA	0.258 ± 0.044
CTCGCGAG	0.282 ± 0.025
ACTGGTTC	-0.13 ± 0.048
CCGCTGCG	-0.0153 ± 0.031
GGAGCCAC	-0.115 ± 0.021
ACTATTAT	-0.056 ± 0.033
ATGGTCTC	-0.144 ± 0.065
ATCGAGCA	-0.207 ± 0.06
CAAATGGG	-0.0564 ± 0.029
CGCAGGCA	-0.12 ± 0.027
ATACGTAA	-0.0111 ± 0.035
CCAACCAG	-0.149 ± 0.0091
CACGCCGA	0.131 ± 0.054
CTCTCTAC	-0.115 ± 0.064
CCGACACG	0.261 ± 0.013
ATGGGTGA	0.153 ± 0.043
GTTCCACA	0.0935 ± 0.091

Sequence	PBM E-score of 8-mer
GGGCACCA	-0.125 ± 0.059
CGGTCGCA	0.242 ± 0.0082
AAAAAATA	0.0569 ± 0.096
AGTTCTCA	0.335 ± 0.02
TATACCAA	0.0681 ± 0.037
CGGCGAAG	-0.192 ± 0.074
GTATTGAA	-0.0973 ± 0.063
TCTGGCAA	-0.0682 ± 0.078
GCTATCAA	0.0124 ± 0.05
CGCGCGTA	0.262 ± 0.015
AACAAATC	0.198 ± 0.045
GTCTACCA	0.00932 ± 0.025
TGTCTCAA	0.0166 ± 0.065
AGGTTATG	0.0583 ± 0.03
AGCTCGAT	-0.115 ± 0.017
GATCTGGA	-0.112 ± 0.034
GAAGCTAA	0.0225 ± 0.034
CTGTAAAA	0.0314 ± 0.081
GCTACTCC	-0.051 ± 0.068
ACAGTATA	-0.0828 ± 0.011
GGCATCTA	-0.0946 ± 0.018
GGACGTCA	-0.154 ± 0.061
ACAAACTA	-0.094 ± 0.026
ATTCTTAG	-0.347 ± 0.09
ACACCCTG	0.426 ± 0.026

Sequence	PBM E-score of 8-mer
CCCCCGTC	-0.178 ± 0.1
AATTCTCG	0.154 ± 0.0096
GGCATGAA	-0.0787 ± 0.006
AGAACGCC	-0.012 ± 0.039
AATGTAAT	-0.138 ± 0.0033
CCGCGTCC	0.0682 ± 0.093
AATGCAAA	-0.1 ± 0.028
GATTAACC	-0.0885 ± 0.017
AGAGTCCG	-0.217 ± 0.034
ACCTTGTC	0.233 ± 0.026
AGAGTTCC	-0.2201 ± 0.00095
ACTCCGTG	-0.123 ± 0.0086
GATATACA	-0.0535 ± 0.015
CTATGCCC	-0.353 ± 0.066
ATTACGCA	0.0306 ± 0.061
AAACTGGG	-0.0921 ± 0.02
GACCATCC	-0.242 ± 0.023
CGAGGTCC	-0.166 ± 0.06
AAACCTCT	-0.362 ± 0.051
ATTCCATG	0.039 ± 0.036
CTCCTAAG	-0.218 ± 0.056
GGGTGATA	0.368 ± 0.0085
CCGATAAA	0.0411 ± 0.039
CACAGACA	0.0252 ± 0.1
ATGCATTG	-0.113 ± 0.082

Sequence	PBM E-score of 8-mer
AGGGGCCG	0.00124 ± 0.011
CAGATGGA	-0.078 ± 0.026
CGCGATAA	0.343 ± 0.027
AACAGGTC	0.14 ± 0.036
ATGAAAAC	-0.268 ± 0.056
TGACAGAA	0.00962 ± 0.028
ACTACACA	-0.0102 ± 0.037
ATGTCTGC	-0.0513 ± 0.028
GCACTATA	-0.0181 ± 0.0023
AACGACCC	-0.0732 ± 0.075
TCGCGTCA	0.273 ± 0.061
GTCCATTA	-0.198 ± 0.018
CCCGGAGC	-0.0554 ± 0.069
CCCACTCC	-0.0608 ± 0.036
AAGCCACA	-0.0358 ± 0.085
CATCTCCG	-0.083 ± 0.045
GCACACCA	0.219 ± 0.03
ATTCTTCC	-0.171 ± 0.015
CCGCCATA	0.0556 ± 0.0067
CACAGCAC	0.183 ± 0.086
ACAAGTAC	0.059 ± 0.048
AATTTTCG	0.127 ± 0.11
AGGACAAG	-0.0489 ± 0.02
GGCTACAC	-0.00692 ± 0.072
GGATCAAA	-0.0675 ± 0.028

Sequence	PBM E-score of 8-mer
GACAGGTA	0.145 ± 0.026
AGGGAGAG	-0.0787 ± 0.011
AAAGACGA	-0.0689 ± 0.069
GGATCGCC	-0.236 ± 0.018
GAAGGGAC	-0.0175 ± 0.019
ATGTTTCA	-0.174 ± 0.074
CCGGGACC	-0.245 ± 0.023
AAGACCAT	-0.203 ± 0.042
GAGATCAA	-0.132 ± 0.04
CGTATATA	0.0791 ± 0.067
CTCACAAG	0.122 ± 0.017
CCTATAGA	-0.0752 ± 0.027
CCCCGAAG	-0.218 ± 0.1
AAGCTGAT	-0.145 ± 0.033
AGTTCTCC	-0.06 ± 0.059
ATCCATGG	-0.184 ± 0.01
CTAAATCC	-0.0121 ± 0.0011
GCTTGTAA	-0.0775 ± 0.029
CGGGATTC	-0.136 ± 0.032
AACGCTAA	0.151 ± 0.019
CTTTGGTC	-0.0786 ± 0.017
AGGTAGGC	0.00539 ± 0.0033
AGCACTAA	0.0398 ± 0.043
CACGTCGA	0.204 ± 0.022
CATTGAGG	-0.224 ± 0.021

Sequence	PBM E-score of 8-mer
CCTTGGTA	0.0017 ± 0.049
ATGAAATC	-0.224 ± 0.016
GGAGTACC	-0.068 ± 0.086
ACACCCGA	0.422 ± 0.012
GCTGAACC	-0.137 ± 0.028
AAGATTCC	-0.0403 ± 0.037
CGTGTATC	-0.109 ± 0.058
CCCCCTAC	-0.0624 ± 0.013
CCAATGAA	-0.149 ± 0.029
ATATAGTC	-0.0502 ± 0.042
ACCACTGA	-0.0716 ± 0.011
GGAACCGA	-0.105 ± 0.066
AGTATATG	0.0355 ± 0.073
CATTGACA	0.225 ± 0.027
CGCCCGGC	0.0104 ± 0.12
AGGGCGTG	0.21 ± 0.011
CCCTCGTA	-0.168 ± 0.031
AACGCCAT	0.216 ± 0.0046
CCAACGCG	0.136 ± 0.027
ATGACCAT	-0.23 ± 0.0083
CTGCATGA	-0.23 ± 0.063
AACGACGT	0.0423 ± 0.019

Source: the supplement of paper PMC4166925
